PubChem BioAssay AID1347165 (National Center for Advancing Translational Sciences (NCATS), 2019)
The campaign covered roughly 220,000 compounds. About 5,700 (2.6%) were called active. The inconclusive results got no clear call from the source; some entries with a clear call stand among them for comparison. Calls come from the whole dose curve; as a rule, active = well fitted inhibition curve with a large enough effect; inconclusive = small, poorly fitted or top-dose-only effect; inactive = no such curve, though single readings can be large or run the other way. Potencies of inconclusive entries are doubtful fits and often do not repeat.

molecular target: Lysine-specific demethylase 5B (Homo sapiens) (UniProt Q9UGL1); assay: Primary screen for KDM5B Histone Demethylases FDH-coupled qHTS; settings: FDH-coupled NADH fluorescence (FDH is formaldehyde dehydrogenase); activity change, negative = inhibition: at 57.7 µM (top of the series) unless noted; note: nearly all actives have a fitted effect of over 70% in size; for activity change, negative = inhibition: 0% is about no effect
Method in brief: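 Inhibition is measured as reduced NADH fluorescence generation from FDH coupling to formaldehyde release. Truncated KDM5BΔAP at 200 nM final acts on H3K4me3 peptide (12.5 µM in substrate mix) in pH 7.5 HEPES buffer with Tween-20, 30 min, room temperature.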
Potency is the fitted concentration of half-maximal effect; tags give direction and shape of the fitted curve.

Sequence of UniProt Q9UGL1 (Q9UGL1 whole entry, looked up, the tested form may be a part): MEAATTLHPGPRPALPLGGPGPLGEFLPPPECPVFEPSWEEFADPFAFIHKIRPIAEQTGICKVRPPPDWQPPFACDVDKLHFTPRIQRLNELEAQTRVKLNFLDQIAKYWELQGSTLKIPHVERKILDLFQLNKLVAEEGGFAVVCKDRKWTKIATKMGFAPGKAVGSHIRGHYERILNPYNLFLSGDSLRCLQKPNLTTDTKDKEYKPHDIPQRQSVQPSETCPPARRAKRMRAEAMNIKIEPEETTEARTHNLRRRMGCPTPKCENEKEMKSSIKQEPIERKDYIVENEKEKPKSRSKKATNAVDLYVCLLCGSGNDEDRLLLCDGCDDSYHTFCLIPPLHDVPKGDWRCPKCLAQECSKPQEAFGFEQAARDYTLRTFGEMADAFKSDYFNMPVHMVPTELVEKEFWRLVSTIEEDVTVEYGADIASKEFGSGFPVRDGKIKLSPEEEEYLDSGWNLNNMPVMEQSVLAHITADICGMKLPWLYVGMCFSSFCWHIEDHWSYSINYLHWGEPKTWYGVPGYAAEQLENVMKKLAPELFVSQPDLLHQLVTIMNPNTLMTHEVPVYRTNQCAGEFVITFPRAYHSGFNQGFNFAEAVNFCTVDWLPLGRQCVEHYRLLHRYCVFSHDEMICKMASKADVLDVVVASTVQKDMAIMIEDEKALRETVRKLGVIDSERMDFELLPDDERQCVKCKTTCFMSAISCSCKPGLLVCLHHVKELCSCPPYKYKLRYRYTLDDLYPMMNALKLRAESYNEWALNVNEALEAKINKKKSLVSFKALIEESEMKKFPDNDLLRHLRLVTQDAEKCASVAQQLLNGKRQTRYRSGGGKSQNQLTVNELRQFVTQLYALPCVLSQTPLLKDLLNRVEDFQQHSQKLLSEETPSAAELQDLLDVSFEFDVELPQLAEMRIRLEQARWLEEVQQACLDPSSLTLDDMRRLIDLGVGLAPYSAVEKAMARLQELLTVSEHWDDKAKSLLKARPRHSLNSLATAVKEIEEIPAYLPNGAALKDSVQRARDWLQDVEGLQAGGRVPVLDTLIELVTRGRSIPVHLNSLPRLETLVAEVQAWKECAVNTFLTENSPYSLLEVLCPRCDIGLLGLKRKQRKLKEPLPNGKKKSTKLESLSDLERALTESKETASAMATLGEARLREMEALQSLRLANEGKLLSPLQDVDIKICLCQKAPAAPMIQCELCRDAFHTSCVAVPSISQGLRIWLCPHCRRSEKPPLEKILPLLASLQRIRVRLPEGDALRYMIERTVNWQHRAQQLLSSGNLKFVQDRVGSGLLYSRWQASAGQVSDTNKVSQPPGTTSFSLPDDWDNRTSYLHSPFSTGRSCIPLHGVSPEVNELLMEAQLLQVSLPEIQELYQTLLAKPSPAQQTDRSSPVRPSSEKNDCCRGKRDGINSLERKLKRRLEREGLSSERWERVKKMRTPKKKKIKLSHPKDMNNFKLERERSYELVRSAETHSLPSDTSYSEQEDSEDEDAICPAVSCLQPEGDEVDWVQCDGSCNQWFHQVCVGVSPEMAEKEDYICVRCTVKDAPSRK

Structure (SMILES) | Potency | activity change, negative = inhibition
COc1cccc(C(=O)N2CCC(N3CC4CC(C3)[C@H]3CCCC(=O)N3C4)CC2)c1 (stereo partly specified) | inconclusive: 15.8 µM [inhibitor, partial curve] | 
O=C1NCCOCCN(C(=O)Nc2ccccc2)[C@@H]2CCCC[C@H]12 | inconclusive: 17.8 µM [inhibitor, single point] | 
Cc1cn2nc(C(=O)N3CCC(NC(=O)c4cccc(C#N)c4)CC3)cc2c(=O)[nH]1 | inconclusive: 17.8 µM [inhibitor, partial curve, poor fit] | 
COCCCNC(=O)C(=O)N1CCN(c2nc(C)c3c(c2C#N)CCCC3)CC1 | inconclusive: 31.6 µM [inhibitor, partial curve, poor fit] | 
N#Cc1ccc(OCCN2CCc3ccccc3C2)cc1 | inconclusive: 2.51 µM [inhibitor, full curve, poor fit] | 
CCc1ccc(NS(=O)(=O)c2ccc3[nH]cc(C(=O)N(C)Cc4ccco4)c(=O)c3c2)cc1 | inconclusive: 31.6 µM [inhibitor, single point] | 
CCCNC(=O)NC[C@H]1O[C@@H]2C[C@@H](CC(=O)NCc3cnn(C)c3)O[C@@H]2[C@@H]1O |  | inactive: 14% [at 86.2 µM]
Cn1c(C(=O)NCc2ccc(F)cc2)cc2cc(Cl)ccc21 | inconclusive: 22.4 µM [inhibitor, single point] | 
CCn1ccc(C(=O)N2CCC(Oc3ccccc3-c3nc(C)no3)C2)n1 (stereo unspecified) | inconclusive: 17.8 µM [inhibitor, partial curve, poor fit] | 
Cc1ccc(CN2CCCCCCNC(=O)CC2c2ccccc2)o1 (stereo unspecified) |  | inactive: -8.37%
COc1ccc(NC(=O)N2CC(Oc3ccc(-c4nc(-c5ccccc5)no4)cc3)C2)cc1 | inconclusive: 14.1 µM [inhibitor, partial curve] | 
CCc1cc(=O)oc2cc(OCC(=O)NCCCN3CCCC3=O)c(Cl)cc12 | inconclusive: 22.4 µM [inhibitor, single point] | 
COc1nccnc1NC1CCN(C(=O)Cc2ccccc2)CC1 | inconclusive: 31.6 µM [inhibitor, partial curve, poor fit] | 
CC(C)c1nc(CNC(=O)c2ccc(NC[C@H]3C[C@H]4C=C[C@H]3C43CC3)nc2)no1 | inconclusive: 31.6 µM [inhibitor, partial curve, poor fit] | 
O=C(c1ccccc1)N1CCCC2(C1)C(=NC1CCCCC1)NC(=O)N2c1cccnc1 (stereo unspecified) | inconclusive: 25.1 µM [inhibitor, single point] | 
Cc1nn2c(c1-c1ccccc1Oc1ccccc1)N(CC1CCOCC1)CCC2 | inconclusive: 28.2 µM [inhibitor, partial curve] | 
O=C1CO[C@H]2CCN(CCCc3ccccc3)CC[C@@H]2N1Cc1ccccc1 | inconclusive: 31.6 µM [inhibitor, single point] | 
CCOc1ccc(-c2oc3cc(Cl)ccc3c(=O)c2O)cc1OC | inconclusive: 2 µM [inhibitor, full curve, poor fit] | 
COc1ccc(C(=O)N2CCC3(CC2)N=C(c2ccc(C)cc2)NO3)cc1F | inconclusive: 10 µM [inhibitor, partial curve, poor fit] | 
O=C(CCOc1ccccc1)N(Cc1cccnc1)c1nc2ccc(F)cc2s1 | inconclusive: 14.1 µM [inhibitor, partial curve, poor fit] | 
CCOC(=O)c1c(NC(=O)c2ccc(OC)c(OC)c2)sc2c1CCCCC2 |  | inactive: -25.1%
CCOC(=O)c1cn2nc(Oc3cccc(F)c3)ccc2n1 | inconclusive: 28.2 µM [inhibitor, single point] | 

Structure (SMILES) | Potency | activity change, negative = inhibition
CC1=C(C(=O)OC(C)(C)C)C(c2ccccc2Cl)NC(=S)N1 (stereo unspecified) |  | inactive: -19.6%
CC(C)(C)C1CCc2c(sc3c2C(c2ccc(O)cc2)CC(=O)N3)C1 (stereo unspecified) |  | inactive: -24.5%
COc1ccc2oc(=O)c(-c3ccc(OCC(=O)N4CCN(C(C)=O)CC4)cc3)cc2c1 | inconclusive: 8.91 µM [inhibitor, partial curve, poor fit] | 
CCCCCC(C)NC(=O)/C=C/c1ccc(C)cc1 (stereo unspecified) |  | inactive: 13.5%
O=C(NCCN1CCOCC1)c1ccc(CN2CC(=O)N3CCCCC3C2=O)cc1 (stereo unspecified) |  | inactive: -8.23%
O=C(NCc1nnc2cc(-c3nc(C4CC4)no3)ccn12)c1ccc(F)c(Cl)c1 | inconclusive: 0.708 µM [inhibitor, full curve, poor fit] | 
Cn1c(COc2ccccc2Cl)nnc1SCCOc1ccc(Cl)cc1 |  | inactive: 7.79%
CC1Oc2ccc(NC(=O)c3cccs3)cc2CN(CCOc2ccccc2)C1=O (stereo unspecified) | inconclusive: 31.6 µM [inhibitor, partial curve, poor fit] | 
COc1ccc(CNc2ncnc3c2cnn3-c2ccc(C)c(C)c2)cc1 | inconclusive: 7.08 µM [inhibitor, partial curve, poor fit] | 
O=C(NCc1ccc(F)cc1)c1ccc(-c2csc(C3CC3)n2)cc1 |  | inactive: -17.5%
COc1ncccc1CNC(=O)c1cnn(-c2ccc(F)cc2)c1-n1cccc1 |  | inactive: 3.42%
COc1ccc(NC(=O)[C@@H]2C[C@H](c3ccc(F)cc3)N(Cc3csc(C)n3)C2)cc1OC | inconclusive: 20 µM [inhibitor, partial curve, poor fit] | 
CCc1cccc(NC(=O)CCS(=O)(=O)c2ccc3nc(C)sc3c2)c1 | inconclusive: 39.8 µM [inhibitor, single point] | 
O=S(=O)(Nc1nc2ccccc2nc1Nc1ccccc1F)c1cccs1 |  | inactive: -14.3%
Cn1cccc1C(=O)N[C@H]1CCN2C(=O)c3cc(Br)ccc3NC(=O)[C@@H]2C1 | inconclusive: 56.2 µM [inhibitor, single point] | 
CCCCOc1ccc(C(=O)N/C(=C\c2ccc(Br)cc2)C(=O)NC2CCCCC2)cc1 |  | inconclusive: -35.8% [inhibitor]
Cc1ccc(NC(=O)Cn2c(SCc3ccc(F)cc3)nc3cccnc32)cc1F | inconclusive: 2.24 µM [inhibitor, full curve, poor fit] | 
CCCC(=O)Nc1nc(-c2ccc3c(c2)CCO3)cs1 |  | inactive: -18.3%
O=C(NCCCN1CCN(c2ccccc2F)CC1)c1cc2c(s1)-c1ccccc1OC2 | inconclusive: 39.8 µM [inhibitor, single point] | 
COc1ccc(-c2cc(Nc3cccc(Cl)c3)nc(C)n2)cc1 | inconclusive: 25.1 µM [inhibitor, partial curve, poor fit] | 
O=C(O)c1ccc(NC(=O)c2cc3ccccc3o2)cc1 |  | inconclusive: -32.5% [inhibitor]
COc1ccc(Cl)cc1N(CC(=O)N1CCN(C)CC1)S(=O)(=O)c1ccccc1 |  | inactive: 7.04%

Structure (SMILES) | Potency | activity change, negative = inhibition
O=C(C1CCCC1)N1Cc2ccccc2CC2(CCN(Cc3cccnc3)C2)C1 (stereo unspecified) |  | inactive: -10.3% [at 115 µM]
Cc1nc2cc(NS(=O)(=O)c3cc(F)cc(F)c3)ccc2o1 |  | inactive: 7.38%
Cc1cc(C)c(C(N)CO)cc1C (stereo unspecified) | inconclusive: 28.2 µM [inhibitor, partial curve, poor fit] | 
O=C(CSc1nc2c([nH]c3ccccc32)c(=O)n1-c1ccccc1)N1CCCCCC1 | inconclusive: 39.8 µM [inhibitor, single point] | 
O=C(CCC1CCN(S(=O)(=O)c2cccc(F)c2)CC1)NCCN1CCOCC1 |  | inactive: 16.6%
CC1(COc2ccccc2)COc2ccc(C(=O)N3CCN(c4ccccn4)CC3)cc2N1 (stereo unspecified) | inconclusive: 39.8 µM [inhibitor, partial curve, poor fit] | 
Cc1nc2scc(CC(=O)NC3CCCCC3)n2c(=O)c1-c1cc(C)n(-c2ccccc2F)n1 | inconclusive: 28.2 µM [inhibitor, partial curve, poor fit] | 
COc1ccc(NC(=O)c2cc3c(N4CCCC4)nc(C)cn3n2)c(OC)c1 |  | inactive: 369%
O=c1c2cc3c(cc2nc(SCc2nc(-c4ccccc4Cl)no2)n1Cc1ccco1)OCO3 |  | inactive: -9.87%
Cc1ccccc1OCC(=O)OC1CCN(C)CC1 |  | inactive: -9.22%
COc1cccc(N2C(=O)NC(=NC3CCCCC3)C23CCCN(Cc2ccccc2)C3)c1 (stereo unspecified) |  | inactive: 3.82% [at 115 µM]
CC(C)c1nccn1CCCNC(=O)c1ccc(-c2cccc(F)c2)nc1 | inconclusive: 25.1 µM [inhibitor, single point] | 
CC(C)CNC(=O)c1cc(C2CC2)nc2c1c(C1CCCN1)nn2-c1ccccc1 (stereo unspecified) |  | inactive: 15.7% [at 115 µM]
COc1ccc(C)cc1-n1nnc(C(=O)Nc2cccc(SC)c2)c1C | inconclusive: 22.4 µM [inhibitor, single point] | 
COc1ccc(Cn2c3c(c(=O)n2Cc2ccccc2)CCN(CC2CCOC2)C3)cc1 (stereo unspecified) | inconclusive: 35.5 µM [inhibitor, partial curve, poor fit] | 
Cc1ccc2nc(CSc3nnc4c(Cl)cc(C(F)(F)F)cn34)cn2c1 | inconclusive: 11.2 µM [inhibitor, partial curve, poor fit] | 
O=C1CN(Cc2cc3cc4c(cc3[nH]c2=O)OCO4)CCCN1 | active: 20 µM | 
COc1ccc(-c2nnc(SCC(=O)N(C)Cc3ccccc3)o2)cc1OC | inconclusive: 2.51 µM [inhibitor, partial curve, poor fit] | 
O=C(O)c1cc(/C=C/C(=O)c2cc(F)ccc2O)c2c(c1)COCO2 | inconclusive: 25.1 µM [inhibitor, partial curve, poor fit] | 
COCCNc1ccc(-c2noc([C@@H]3CCCN3Cc3ccccc3F)n2)cn1 | inconclusive: 28.2 µM [inhibitor, single point] | 
CCOC(=O)COc1ccc2c(C)c(CC(=O)OC)c(=O)oc2c1 | inconclusive: 22.4 µM [inhibitor, partial curve, poor fit] | 
CCn1ncc(NC(=O)Cn2ncc3cc(-c4cccc(OC)c4)ccc32)n1 | inconclusive: 17.8 µM [inhibitor, partial curve, poor fit] | 
